By % Inhibition is commonly meant the relative decrease from the control value, in per cent.

Each structure is given as a SMILES string. The whole screen tested about 150,000 compounds, of which about 540 (0.36%) showed an effect of 50% or more. The list shows a part of the results.

Here are results for 54 compounds from ChEMBL document CHEMBL4888484, “Replenishing the malaria drug discovery pipeline: Screening and hit evaluation of the MMV Hit Generation Library 1 (HGL1) against asexual blood stage Plasmodium falciparum ,using a nano luciferase reporter read-out” (2022).

The subject of this assay is Plasmodium falciparum. In words: Primary screen in NF54 nanoGlo assay, in single point, at 2uM, 72h; a lower Z score goes with more inhibition. Particulars: timepoint 72 hour. The assay is classed as functional, Erythrocyte.
On to `CC[C@@H](CO)NC(=O)NC(c1ccc(F)c(F)c1)C(C)C` (stereo partly drawn), for which the “% Inhibition” value amounted to 7% and the Z score is on record as -0.95.

As for `CCCN1C[C@@H](Nc2nnc(C(C)(C)C)o2)CC1=O`, the “% Inhibition” value was -14% and the Z score stood at 1.83.

Consider `Cc1ncccc1OCc1ncnn1C(C)(C)C`, for which the “% Inhibition” value came to 12% and the Z score is -1.35.

With `COC(=O)N1CC[C@H](NCc2cnc(-c3cccs3)s2)C1`, the “% Inhibition” value is recorded as -2% and the Z score was determined as 0.24.

As to `COc1ccc(Oc2c(CN(CC3CC3)C(C)=O)c(C)nn2-c2cccc(Cl)c2)cc1`, the “% Inhibition” value turned out to be 16% and the Z score is reported as -1.92.

Regarding `CCn1nc(C)c(CN2CCC(OCc3ccc(F)cc3)CC2)c1C`, the “% Inhibition” value was -7% and the Z score was determined as 0.65.

Regarding `Cn1cnn(-c2ccc(NCC#Cc3ccc(C(F)(F)F)cc3)cc2)c1=O`, the “% Inhibition” value is recorded as -6% and the Z score was determined as 0.66.

Regarding `COC[C@@](C)(O)CNC(=O)c1ccsc1`, the “% Inhibition” value was -14% and the Z score is recorded as 2.07.

Consider `Cc1cnc(N2CCC(NCCOc3ccccc3)CC2)s1`, for which the “% Inhibition” value is -2% and the Z score was 0.17.

Consider `C#CC[C@H]1CCCN(c2nnnn2C2CC(COC)C2)C1` (stereo partly drawn), for which the “% Inhibition” value turned out to be 1% and the Z score is -0.23.

On to `O=c1c2ccccc2nc2cc(-c3ccc(O)cc3)c(-c3ccccc3)nn12`, for which the “% Inhibition” value was determined as 39% and the Z score is listed as -4.85.

Take `Cc1oc(-c2cccc(Cl)c2)nc1CNC(=O)Nc1ccccc1C(F)(F)F`: the “% Inhibition” value is given as -7% and the Z score is on record as 0.91.

For the compound `CC(C)(CO)CCCNC(=O)[C@@H]1Cc2cccc(F)c2O1`, the “% Inhibition” value is reported as -1% and the Z score is recorded as 0.14.

On to `CCc1nc(C2CCN(C[C@H](O)COc3cc(C)ccc3Cl)CC2)n[nH]1`, for which the “% Inhibition” value is recorded as 4% and the Z score is -0.53.

As to `Cc1cccc(NC(=O)CN(C)CC(=O)N2CCC(Cc3ccccc3)CC2)c1C`, the “% Inhibition” value is reported as -1% and the Z score is recorded as 0.13.

For the compound `Cc1ccc(Cl)cc1-n1nc(O[C@@H](C)C(=O)NCc2ccccc2F)ccc1=O`, the “% Inhibition” value is recorded as -6% and the Z score is 0.9.

On to `CCN(C(=O)c1cccc(-c2ccc3scnc3c2)c1)[C@H]1COC[C@@H]1O`, for which the “% Inhibition” value is -14% and the Z score came to 1.5.

Take `CCc1ccc(CNC(=O)[C@@H]2COCC(=O)N2Cc2ccc(C)cc2)cc1`: the “% Inhibition” value is recorded as -9% and the Z score was 1.54.

As for `CC(C)(NC(=O)c1ccccc1)c1nc(-c2ccncc2)no1`, the “% Inhibition” value is recorded as -7% and the Z score came out at 0.97.

With `CN1CCN2CCN(C(=O)Nc3ccc(Oc4ccccc4)cc3)C[C@@H]2C1`, the “% Inhibition” value was -1% and the Z score turned out to be 0.21.

For `COC(=O)[C@H]1CCN(C(=O)CNc2cc(Cl)ccc2OC)[C@H]1C(C)C`, the “% Inhibition” value is -1% and the Z score came out at 0.08.

Take `O=C1Cc2ccccc2N1CCNC(=O)N1CCC[C@H]1C(F)F`: the “% Inhibition” value came out at 4% and the Z score was -0.79.

Consider `Cc1cc(-c2nnc(NC(=O)Cc3cccs3)o2)n(C)n1`, for which the “% Inhibition” value is -12% and the Z score is recorded as 2.33.

With `CC(=O)N1CC[C@H](CN(C)Cc2cnn(Cc3ccc(F)cc3)c2)C1`, the “% Inhibition” value was -1% and the Z score turned out to be 0.17.

For `Cc1nc(-c2cc3c(s2)CCN(C(=O)c2ccon2)C3)cs1`, the “% Inhibition” value was -13% and the Z score worked out at 1.89.

Turning to `CC[C@H]1[C@H](NC(=O)c2ccccc2N2CCC(=O)NC2=O)[C@H]2CCO[C@H]21`, the “% Inhibition” value came out at 0% and the Z score is recorded as -0.02.

With `CC(=O)c1cnc(N(C)Cc2ccncc2C)nc1C`, the “% Inhibition” value came out at 0% and the Z score is -0.02.

Consider `CC[C@@H](CC#N)NC(=O)c1cccn1C(C)C`, for which the “% Inhibition” value is -7% and the Z score came to 0.71.

As for `CC(C)C[C@H]1CC(=O)N(CC(=O)N2CCN(C(=O)c3ccccc3)CC2)C1`, the “% Inhibition” value is on record as -6% and the Z score is reported as 1.09.

For `Cc1ccc(F)cc1CN1CC(C#N)C2(C1)C(=O)Nc1ccccc12` (stereo not drawn), the “% Inhibition” value was -7% and the Z score was 0.91.

As for `O=C(NCc1nccs1)NCC1(c2ccccc2)CC1`, the “% Inhibition” value is recorded as -11% and the Z score is recorded as 0.99.

`CCS(=O)(=O)CCn1cc(C)nn1`: the “% Inhibition” value is listed as 3% and the Z score is -0.66.

Turning to `Cc1ccc(CN(Cc2ccc(F)cc2)C(=O)CN(CCN2CCOCC2)S(=O)(=O)c2ccc(Br)cc2)o1`, the “% Inhibition” value was -8% and the Z score is on record as 1.34.

`CC(=O)c1ccc(CNC(=O)c2cc(C)no2)nc1C`: the “% Inhibition” value is on record as -8% and the Z score is listed as 0.66.

Regarding `CN(CC(=O)NC[C@H]1CCCO1)Cc1ccc(F)cc1Cl`, the “% Inhibition” value is given as -12% and the Z score is 1.49.

Consider `CC(C)(C)n1nc(-c2ccco2)nc1[C@@H]1CCC(=O)N1`, for which the “% Inhibition” value is given as -9% and the Z score stood at 1.16.

As for `O=C(c1cccc(-c2ncc[nH]2)c1)N(CCO)Cc1nccs1`, the “% Inhibition” value is -17% and the Z score is given as 1.71.

Take `C[C@H](NCc1cccc(C#N)c1)C(=O)N1CCCCC1`: the “% Inhibition” value is given as -11% and the Z score was 1.04.

As for `Nc1nc(COC(=O)CCc2ccc3c(c2)OCO3)nc(Nc2ccccc2)n1`, the “% Inhibition” value is listed as -3% and the Z score came to 0.37.

As for `O=C1CN(Cc2ccc(Cl)s2)CCN1`, the “% Inhibition” value is given as -10% and the Z score came to 1.15.

Regarding `Cc1cc(C(=O)N2CCC[C@@]3(CCCO3)CC2)no1`, the “% Inhibition” value is given as -3% and the Z score is 0.4.

In the case of `OCCN(Cc1ccc(F)cc1)C1CCN(c2ccc3c(c2)OCO3)CC1`, the “% Inhibition” value is reported as -5% and the Z score amounted to 0.73.

As for `C1=CC(N2CCOCC2c2nc(-c3ccccc3)no2)CCC1` (stereo not drawn), the “% Inhibition” value is 3% and the Z score is -0.36.

Turning to `CC(C)CN1CCn2cc(C(=O)NCc3ccc(C(F)(F)F)cc3)nc2C1`, the “% Inhibition” value was 6% and the Z score is -0.84.

Regarding `COc1ccc([C@H](C)NC(=O)c2cc3c(s2)CCN(C(=O)c2ccccc2)C3)cc1`, the “% Inhibition” value is given as -8% and the Z score was determined as 1.15.

`Cc1n[nH]nc1C(=O)NCCCn1cc(Cl)cn1`: the “% Inhibition” value is -9% and the Z score is listed as 0.92.

Consider `CC(C)(C)NC(=O)N(Cc1ccccc1OS(=O)(=O)c1ccc(F)cc1)CC1CC1`, for which the “% Inhibition” value is reported as -6% and the Z score was 0.72.

For the compound `C#CCN(CCOC(=O)N(C)C)C1CCCC1`, the “% Inhibition” value is listed as -7% and the Z score was 1.

Consider `C=CC[C@]1(C(=O)O)CCCN(Cc2cc(C(N)=O)oc2C(C)(C)C)C1`, for which the “% Inhibition” value was found to be 1% and the Z score was -0.21.

`O=C(c1cc2n(n1)CCN(Cc1cccc(Cl)c1)C2=O)N1CCC(Cc2ccccc2)CC1`: the “% Inhibition” value is given as -10% and the Z score is reported as 1.1.

Take `O=C1NCCN(Cc2ccccc2)[C@H]1CC(=O)N1CCCCCCC1`: the “% Inhibition” value is reported as -10% and the Z score stood at 1.82.

`Cn1ccc(C(=O)N2CC(F)(F)C[C@H]2Cn2cc(C(=O)NCc3ccccc3)nn2)n1`: the “% Inhibition” value is recorded as 34% and the Z score is given as -3.88.

As to `CN(CC1(CO)CCC1)c1nnc(C(C)(C)C)o1`, the “% Inhibition” value came to 3% and the Z score is listed as -0.54.

As to `COc1cccc(-c2cc(C(=O)N[C@@H](C)c3ccccc3)nc3cc(-c4ccccc4)nn23)c1`, the “% Inhibition” value was -14% and the Z score amounted to 1.77.
